{"source": "patent US11744889B2", "about": "“Skin microenvironment targeted delivery for promoting immune and other responses” (University of Pittsburgh—Of the Commonwealth System of …, priority 2016, dated 2023)", "molecular_target": "T1, NK1R (Homo sapiens, UniProt P25103)", "T1 construct": "adding SarSP to human mixed leukocyte cultures (MLC) using skin DC as stimulators of allogeneic naïve CD4 T cells; endogenous in cells; host or cells: human skin dendritic cells from skin explants, co-cultured with allogeneic T cells (MLC)", "T1 sequence (P25103 whole entry)": "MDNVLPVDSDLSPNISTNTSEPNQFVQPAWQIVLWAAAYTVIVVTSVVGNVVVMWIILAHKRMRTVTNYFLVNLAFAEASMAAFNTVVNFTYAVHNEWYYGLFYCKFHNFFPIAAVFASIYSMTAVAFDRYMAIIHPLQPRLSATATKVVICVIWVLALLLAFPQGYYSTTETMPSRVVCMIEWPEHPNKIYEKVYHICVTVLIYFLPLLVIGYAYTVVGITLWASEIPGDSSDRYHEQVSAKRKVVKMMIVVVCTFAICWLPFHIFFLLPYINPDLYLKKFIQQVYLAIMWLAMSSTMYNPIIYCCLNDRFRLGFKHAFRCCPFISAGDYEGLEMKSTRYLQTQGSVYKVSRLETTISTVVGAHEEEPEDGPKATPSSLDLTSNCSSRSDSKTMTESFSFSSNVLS", "experiment": "T cell stimulatory function of human skin DCs in MLC", "type": "cell-based", "conditions": "L733,060 added in MLC cultures"}
{"smiles": "FC(F)(F)c1cc(CO[C@H]2CCCN[C@H]2c2ccccc2)cc(C(F)(F)F)c1", "note": "[L733,060]", "values": [{"measurement": "allogeneic T cell proliferation in response to DC stimulation", "result": "significantly reduces allogeneic T cell proliferation"}]}
